Read counts are not given, so values of variants with three or more changes are uncertain.
B1: LINE1-mini (parent)
chain: GGCAGAGCUCAACACAGCGUGGCAAAGUGGCUGUGGCUAGACUGCC

Variants of: B1
Assay: self-cleavage, relative activity (ratio to wild type); higher = more cleavage; in vitro, sequencing; the parent is a self-cleaving ribozyme

Variant	self-cleavage
U28C G33A G35U	0.23
U28C G33A G44U	0.03
U28C G33A U38C G44A C45A	0.03
U28C G33C U34A G35A	0.1
U28C G33C U38C C42A G44C	0
U28C G33U C37A U38G	0.01
U28C G33U C45A	0.13
U28C G33U G35C U38C	0.18
U28C G35A G36C U38A	0.04
U28C G35U G40U	0.17
U28C G36C U38A	0.01
U28C G40U U43G	0
U28C U32A A41C	0.05
U28C U32C G35U G36C C45A C46G	0.07
U28C U32C G44C	0.04
U28C U34C G44U	0.04
U28C U34G G35A	0.03
U28C U34G G44U	0.04
U28G A41G C46G	0.07
U28G C31G A41C U43C	0.01
U28G C31U C37A C45G C46A	0.07

Variant	self-cleavage
U28G C31U C42A	0.04
U28G C31U G33C	0.01
U28G C31U G40C C45A C46U	0
U28G C31U U38C	0.24
U28G G29A C46A	0.44
U28G G29A U43A	0.07
U28G G29U C31A A41U	0.19
U28G G29U G40U	0.03
U28G G29U U34C C45A	0.12
U28G G30A G40A	0.02
U28G G30C C37G	0
U28G G33A C42G	0.03
U28G G33A G36C C45A	0
U28G G33C U38G A41G C42U	0.01
U28G G35A G36A U38G	0.01
U28G G35A U43G	0.26
U28G G36A C42A	0.16
U28G G36C A39G	0.02
U28G G36U U38A	0.01
U28G G40U A41C	0.06
U28G U32A G33A	0.02

Variant	self-cleavage
U28G U32A U38A	0.12
U28G U32C C37A G40U	0.09
U28G U32C C46A	0.09
U28G U32C C46U	0.05
U28G U32G U34A C37G	0.02
U28G U32G U34C G44U	0.01
U28G U34A G44A	0.03
U28G U34C G35C	0.01
U28G U34C G44U	0.23
U28G U34G G36U	0.02
U28G U34G U38A	0.19
U28G U38C A39G	0.07
U28G U43A C46U	0.02
G29A A39G U43A	0.19
G29A A41U C45G	0.35
G29A C31A G40C C46A	0.01
G29A C31G U38C	0.89
G29A C31U A41U	0.55
G29A C37A A41G U43G	0.01
G29A C37A U43G	0.01
G29A C37U A41C	0

Variant	self-cleavage
G29A G30A C37G	0.05
G29A G30A U32A	0.18
G29A G30A U43A	0.38
G29A G30C G40U	0.06
G29A G30U A39G C46G	0.03
G29A G30U C42U	0.13
G29A G30U G35A C46U	0.13
G29A G30U G35U	0.14
G29A G33A C46G	0.11
G29A G33A G35U	0
G29A G33A G36U	0.05
G29A G33U G35C C45G	0.01
G29A G35U C42A G44U	0.02
G29A G36A C37A C46U	0.06
G29A G36A U38C	0.17
G29A G36U A41C C46U	0.02
G29A G36U G40U U43A C46G	0.01
G29A G40A G44U	0.17
G29A G40A U43C C46G	0.01
G29A U32A A41C	0.1
G29A U32A C42A	0.08

Source: the RNAGym collection of RNA variant scans (doi:10.7554/elife.90254)
